Some of the results follow.

T1: UNK ZnF1-3 (human, UniProt Q9C0B0 31-174)
T1 sequence: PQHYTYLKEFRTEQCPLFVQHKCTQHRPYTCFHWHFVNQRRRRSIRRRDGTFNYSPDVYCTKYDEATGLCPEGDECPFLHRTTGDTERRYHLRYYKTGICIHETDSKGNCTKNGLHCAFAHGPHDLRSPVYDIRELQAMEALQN

B1: chr18:9859796:9859797:+_ENSG00000168461_ENST00000578921|hu_hu|FALSE|FALSE (ssRNA)
RNA: GGGAGUUCUACAGUCCGACGAUCCAUUGACACUUCUCUGAUUUCCUCCAAAAAGUAAUAAAUAAAGGCUUACUUCCAAAGCUAGCUAAAAACUAACCUCCUGAACUAAAUUUGCCUUUCAGUGAAGGUUGGUUAGGUAACAAACAACAGAGGAUUGAGCAUCA
B2: chr16:1877921:1877922:+_ENSG00000180185_ENST00000427358|hu_mus|motif|central (ssRNA)
RNA: GGGAGUUCUACAGUCCGACGAUCUUUCAUUAUUAGUGUCAUUUAUUUCCCUUGCUUCUGUCUCCCUUCCCCUUUGGCACUCGGCUCUCAGUAUUCUGAUCUUUUCACCUUGAACCUCAUACUAACCACCCCAUCUAUGCCGGCCAACAGAGGAUUGAGCAUCA
B3: chr2:202488911:202488912:-_ENSG00000155755_ENST00000286196|hu_hu|motif|central (ssRNA)
RNA: GGGAGUUCUACAGUCCGACGAUCUUUUAACAUUUUUCAUAAUAUUGAGAGAUGUUUCAGUAUUAUAUAAUCAAAAAAUCGGUUACAAAUACACAUGUAUACAUCUUAUAAAAAUACAUUUAAAAACAAAAAUGGGACAAAUACCAACAGAGGAUUGAGCAUCA
B4: chr9:58049234:58049235:-_ENSMUSG00000051243_ENSMUST00000163200|mus_mus|FALSE|FALSE (ssRNA)
RNA: GGGAGUUCUACAGUCCGACGAUCGCUGUGGCGGUGGGGAGAAAGGGGGAGUGCAUUGAAAGAACUCCCCUUGGCCCCAAAGUCCUACUUCAAUUUUUUUCUUUCCUUAUCUGUUCGCCCUACUUCUCCAGGAUUGCAGGUUUGCAACAGAGGAUUGAGCAUCA
B5: chr5:116376479:116376480:+_ENSMUSG00000029516_ENSMUST00000051704|mus_hu|FALSE|FALSE (ssRNA)
RNA: GGGAGUUCUACAGUCCGACGAUCCUGCUCCAGGAGGGAUCUCUGAGUCUCAGAGGCCUUCAGCUCCACCUCCUUCUGACUAAGCACAGCCUCCACCUCUGACACUCUCCGAUGUAACCGGGUCAUUUCCUGCUCCAUCUUGUGCAACAGAGGAUUGAGCAUCA
B6: chr2:9570881:9570882:+_ENSG00000119203_ENST00000238112|hu_mus|hu_hu_hu_mus_False|88_88 (ssRNA)
RNA: GGGAGUUCUACAGUCCGACGAUCACUUGUCUUCUGAAGGAACCAGGGCAGAGCUCCACAGUGAUCCAAAUGGAAAUGACUGAUCAACAGAAGGUCGAUCUCAGCUGGGUCGAUAAGGUCAAUGUAAGGAAGGGCAUCCAUUCCCAACAGAGGAUUGAGCAUCA
B7: chr2:148695906:148695907:-_ENSG00000115947_ENST00000542387|hu_hu|FALSE|FALSE (ssRNA)
RNA: GGGAGUUCUACAGUCCGACGAUCGACCAUUUGAAAAUUAAAUGGCUCUUCCUCAUAGAUGUCAUUUAAAUGUUUCAUUGCUAUUAUAAGACAGAUUUCCAAGACUGAUAGACCAUGUACAAUAUUUGCUUUCGAGUCCAUGCUCAACAGAGGAUUGAGCAUCA
B8: 48278469_48278589_1400_CDS_ENSMUSG00000038143_ENSMUST00000110367|mouse|control|control (ssRNA)
RNA: GGGAGUUCUACAGUCCGACGAUCCAUGGGGAAAUGGGACUCGAUCACGUUCGUGUUGCUAUGCAUGAUGAAGUUGUCCCCUUUGUGUUCAAUGAUGAAGCAGCCCUCUCUGGGGGCCCUGGUUAGAGGGUCGCAAAAUUCAUACAACAGAGGAUUGAGCAUCA
B9: chr1:46159212:46159213:+_ENSG00000159596_ENST00000372025|hu_mus|hu_hu_hu_mus_True|1_68 (ssRNA)
RNA: GGGAGUUCUACAGUCCGACGAUCUCUGAUCCCUCCCAAGAAAGCUAGGAAACCGGCUCCAUAAGCCAUCUGAGUAAAAGCUAGGACGGGGAUAUAAGACUUUGUUAUUACCAUGAGAAGUGGGGGAGCAGUAAAGGGGAUUAGCAACAGAGGAUUGAGCAUCA
B10: chr10:1038518:1038519:+_ENSG00000107937_ENST00000545048|hu_hu|hu_hu_hu_mus_False|28_48 (ssRNA)
RNA: GGGAGUUCUACAGUCCGACGAUCCAGUCUGUCAUGGUAAUUCUGUUGAGUAAAUUUGACUUUUCUCAUAUAAAAAUGUCGAAUCCGAUGUAUUUGGUAAUGUUUAUGAAUAACGGUUGGAGUCUUUCGUUGAGUCUUGGAUAACAACAGAGGAUUGAGCAUCA
B11: 145604450_145604570_2147_3pUTR_ENSMUSG00000018199_ENSMUST00000159879|mouse|control|control (ssRNA)
RNA: GGGAGUUCUACAGUCCGACGAUCCUCAGAGUAUUUGGACAUUAUUAAAACUGUCGUUUUCCAAUGAAGACAUUUAAGAAAAGAAACACUUCUCAUACAAGUGACAUGAUGUGAGGCUACUUAUACUCUGUAUCACACUUUCAGCAACAGAGGAUUGAGCAUCA
B12: chr7:140404665:140404666:+_ENSG00000090266_ENST00000247866|hu_hu|hu_hu_hu_mus_False|58_88 (ssRNA)
RNA: GGGAGUUCUACAGUCCGACGAUCUGCUCCUACUCGUCCAGAGAGUUUACACCUUCAGUCCUCGUCAUCAGGAGGGAUACCUAAUUCUUCAUCUGUCCACUGUGAAGGAUCUGGAUAUGAAAAGUGACCCAGCACAGCAUCCGACAACAGAGGAUUGAGCAUCA
B13: chr7:141445308:141445309:+_ENSG00000106028_ENST00000265304|hu_hu|hu_hu_hu_mus_False|28_58 (ssRNA)
RNA: GGGAGUUCUACAGUCCGACGAUCUAUGAUUGUUGUUGCUUGCCGCCUCACAUUGUUUUUAUCCAUGUACUCGCCAUAGUCUAUUUUCCCUUCCACAAAUAUACGAGACCCCUUUUUCACAUACUGAUAUGCCACAUCUCUGAGCAACAGAGGAUUGAGCAUCA
B14: chr4:140556289:140556290:+_ENSMUSG00000036622_ENSMUST00000037055|mus_mus|mus_mus_mus_hu_False|68_68 (ssRNA)
RNA: GGGAGUUCUACAGUCCGACGAUCGAUGGAGCUCACCAGGCCCCCUUUUGCCGUGCAGAACCCUGUGCGAGUCACCACUGCCAGGACGUGCGGUCCCACAUAGGCCCGGGCCUGCAAGAUGAGGGUCCCGCAGAAGAGUGUGUGCAACAGAGGAUUGAGCAUCA

In the experiment the target is T1, UNK ZnF1-3. Briefly: nsRBNS (natural sequence RNA bind-n-seq); RBNS binding buffer (assumed for nsRBNS): 25 mM Tris pH 7.5, 150 mM KCl, 3 mM MgCl2, 0.01% Triton X-100, 500 ug/ml BSA, 20 U/ml SUPERase-In, 4 C; UNK is unkempt and MSI1 is Musashi-1; names of the RNAs are library labels; protein concentration not given here; high values mean tight binding.
As for B1, the binding signal was found to be 1.02 enrichment R.
In turn, B2 gave a binding signal of 0.795 enrichment R.
With B3 the figure was 0.785 enrichment R; with B4, 1.03 enrichment R; with B5, 0.684 enrichment R.
Molecule B6 yielded a binding signal of 1.28 enrichment R.
With B7 the figure was 0.9 enrichment R.
B8: the binding signal was 0.647 enrichment R.
In turn, B9 gave a binding signal of 1.28 enrichment R.
Next, B10: 0.747 enrichment R.
As for B11, the binding signal stood at 0.708 enrichment R.
Next, B12: 1.15 enrichment R; B13: 0.627 enrichment R; B14: 1.19 enrichment R.

Source of the values: paper PMC12136788.
